Laboratory results as given in ChEMBL document CHEMBL4888484, “Replenishing the malaria drug discovery pipeline: Screening and hit evaluation of the MMV Hit Generation Library 1 (HGL1) against asexual blood stage Plasmodium falciparum ,using a nano luciferase reporter read-out” (2022).
Values joined by “and” are separate entries in the source; they are usually repeats but may differ in a detail not shown here. Equal values may be shown once. Out of some 150,000 compounds screened, about 540 (0.36%) showed an effect of 50% or more. The list shows a part of the results.

Test system: Plasmodium falciparum
Experiment: Primary screen in NF54 nanoGlo assay, in single point, at 2uM, 72h; a lower Z score goes with more inhibition
Format: functional, Erythrocyte
Conditions: timepoint 72 hour

SMILES | % Inhibition | Z score | % Inhibition (2 µM)
O=C(C1CCCC1)N1CCC[C@@H]1CCc1noc(C2CC2)n1 | -8% | 1.37 | –
CN1CCN(C(=O)c2cccc(S(=O)(=O)N3CCC[C@H]3CO)c2)CC1=O | -5% | 0.48 | –
O=C(Nc1ccccc1)C1CCN(C(=O)c2cnn(-c3ccccc3)c2)CC1 | -14% | 1.77 | –
COCCn1c(CO)nnc1[C@H]1C[C@@H](Nc2cc(C)c(C#N)c(C)n2)C1 | -13% | 1.41 | –
c1ccc(-n2nnnc2-c2ccc(-c3nnnn3-c3ccccc3)cc2)cc1 | -5% | 0.96 | –
COC[C@@H]1CCCN1C(=O)N[C@H]1CCCc2ccccc21 | -4% | 0.72 | –
CC(NCC(=O)NCC1CCS(=O)(=O)C1)c1cccc(Cl)c1 (centres undefined) | 3% | -0.44 | –
CCN(Cc1nc2ccccc2c(=O)[nH]1)C1CCN(Cc2ccccc2)CC1 | -1% | 0.13 | –
COc1cc([C@H]2CC(=O)Nc3[nH]nc(C)c32)ccc1OCc1ccccc1C | 2% | -0.37 | –
CN(C[C@H]1CCN(C)C1(C)C)C(=O)Cc1cccc(O)c1 | -1% | 0.21 | –
Cc1ccc2c(c1)c1c(n2C[C@@H](O)Cn2ccnc2C)C(=O)CCC1 | 14% | -2.43 | –
Cc1cc(N(C)C)n2nc(CN3CCC(Cc4ccccc4)CC3)nc2n1 | -10% | 1.3 | –
CC(C)c1csc([C@@H](C#N)C(=O)C2CCOCC2)n1 | -14% | 2.69 | –
COc1ccc(OC)c(S(=O)(=O)Nc2ccc(S(=O)(=O)N3CCCC[C@@H]3C)cc2)c1 | 0% | -0.02 | –
O=C(CC1=CCCCC1)NC1CCN(c2[nH]cnc3ncnc2-3)CC1 | -6% | 0.84 | –
CC=C(C)C(=O)N1CCOC[C@@]1(CO)CNC(=O)OC(C)(C)C | -17% | 2.27 | –
Cc1nc(C(=O)NCC2(N3CCCCC3)CCOCC2)c(C)s1 | -6% | 0.95 | –
CN1c2cc(F)ccc2C(=O)NC12CCN(C(=O)NCc1ccccc1)CC2 | -12% | 1.49 | –
Cc1nc[nH]c1C(=O)NC[C@H]1CCCN(Cc2ccoc2)C1 | -4% | 0.41 | –
COc1ccc([C@H](C)NC(=O)C(N)=O)cc1 | 1% | -0.16 | –
Cc1cc(CCNC(=O)N2CC[C@]3(CCOC3)C2)cc(C)c1O | 6% | -1.12 | –
Cc1cnn(C2CN(Cc3cc(=O)n(C)c(=O)n3C)C2)c1 | -13% | 1.75 | –

SMILES | % Inhibition | Z score | % Inhibition (2 µM)
C#CC[C@H](CC(F)(F)F)NC(=O)c1cnc2n1CCOC2 | -8% | 1.57 | –
CCOC(=O)CC(=O)Nc1ccccc1C(N)=O | -1% | 0.19 | –
Cn1c(C(=O)NCCCN2CCN(c3ccccc3F)CC2)c(N2CCCC2=O)c2cc(F)ccc21 | 0% | 0.01 | –
Cc1cccc(N2CCN(C(=O)c3nc4cccnc4n(CC(C)C)c3=O)CC2)c1C | -8% | 0.85 | –
O=S(=O)(NCC12CCCN1CCC2)c1cccc2c1OCC2 | -3% | 0.44 | –
CCn1cc(-c2ccc(C)cc2)cc1C(=O)N1CCC[C@H](C)C1 | -1% | 0.13 | –
O=C(c1ccc(OCc2ccccc2)nc1)N1CC[C@@H](O)C1 | -9% | 0.91 | –
Cc1cc(C)n(S(=O)(=O)N2CCOCC2)n1 | -1% | 0.26 | –
Cc1cc(C(=O)Nc2ccc3ccccc3c2)c(C)o1 | -10% | 1.11 | –
COCCn1nnnc1N1CCN(C(=O)OC(C)(C)C)[C@@H](C)C1 | – | – | -2% and 15%
CC1CCN(C(=O)c2ccc(N3CCCC(CO)C3C)nc2)CC1 (centres undefined) | -16% | 2.97 | –
CC1CCC(n2cc(-c3cccs3)nn2)C1 (centres undefined) | -20% | 2.7 | –
Cc1ccc(C(=O)N(CCN2CCCCC2)C2CCOCC2)cc1F | -15% | 2.5 | –
Cc1ccc(-c2cnc(N)cn2)c(-n2cccn2)c1 | 11% | -2.11 | –
Cc1nc2[nH]cnc2cc1-c1ccc(CN(C)C)cc1 | -15% | 1.49 | –
CCC[C@H]1CN(CCO)C[C@@H]1NC(=O)c1ccc(OC)cc1 | -2% | 0.32 | –
CCCCN1CC(C(=O)N2CC(C)CC(C)C2)CC1=O (centres undefined) | -5% | 0.76 | –
COc1ccc(-c2noc([C@@](C)(O)Cn3c(C)cccc3=O)n2)cc1OC | -8% | 0.75 | –
Cc1c(N[C@@H](CC2CCN(C(=O)OC(C)(C)C)CC2)c2cccnc2)cnn1C | -9% | 1.58 | –
CC(C)N1CCC[C@H]1C(=O)Nc1nc2cccnc2n1C | -3% | 0.45 | –
CN(Cc1ccsc1)C(=O)CNC(=O)COc1ccccc1 | -11% | 1.45 | –
CC[C@H](NC(=O)CCC(=O)c1cccc2ccccc12)C1CC(O)C1 (some centres undefined) | 9% | -1.21 | –

SMILES | % Inhibition | Z score | % Inhibition (2 µM)
Cc1cccc2oc(CNC(=O)CCN3C[C@@H](C)O[C@@H](C)C3)nc12 | 0% | 0.04 | –
C=CCN(CC(F)(F)F)C(=O)CC1CCC2(CC1)OCCO2 | 5% | -0.96 | –
O=C(Nc1n[nH]c(C(F)(F)F)n1)c1ccc2nnnn2c1 | -11% | 1.34 | –
CC(=O)Nc1ccc(NC(=O)N2CCCCCCC2)cc1 | -7% | 1.48 | –
NC(=O)C[C@@H](CC(=O)OCc1ccccn1)c1ccccc1 | 7% | -0.82 | –
CC(=O)c1nn(-c2ccc(OC(F)(F)F)cc2)nc1Nc1ccc(F)cc1 | -13% | 1.55 | –
CC(C)(C)OC(=O)NC1(CO)CCN(c2nc(-c3ccccc3)ns2)CC1 | 4% | -0.67 | –
Clc1ccccc1CNc1nc(-c2ccccc2)no1 | -11% | 0.94 | –
CC(NC(C)c1ccc(Cl)cc1Cl)C(=O)NC1CCCCC1 (centres undefined) | -11% | 1.69 | –
O=C(Cc1ccccc1)C1CCCN(C(=O)C2CCOC2)C1 (centres undefined) | -2% | 0.3 | –
CC(C)CCS(=O)(=O)NC(=O)C1CC2CCC(C1)C2=O (centres undefined) | -11% | 0.95 | –
C#C[C@H](C)OC(=O)c1ccc(N(CC)CC)nc1 | -7% | 0.59 | –
COc1ccc2c(c1)N1CCN(c3ccccn3)CC1C(C(=O)NC(C)C)C2 (centres undefined) | -1% | 0.15 | –
CN1C[C@@H](NC(=O)c2ccn(C)n2)Cc2ccccc21 | -11% | 1.48 | –
C[C@H](NC(=O)N1Cc2ccccc2C2(CC2)C1)C(C)(C)CN(C)C | -7% | 0.7 | –
Cc1ccc(-c2noc(CCC(=O)NC3CCCC3)n2)c(=O)n1C(C)C | -8% | 1.17 | –
CC1=CCCC(C)C1CN1CCC(n2cncn2)CC1 (centres undefined) | -7% | 0.94 | –
C[C@H](NS(=O)(=O)c1ccc2c(c1)NC(=O)CO2)c1ccccn1 | -43% | 5.06 | –
O=C(CCC1CCCCCC1)N1CCC(c2cnco2)CC1 | -7% | 0.83 | –
Cc1cccc(N/C(=N/C(=N)NC(=O)c2ccccc2)Nc2nc(C)cc(C)n2)c1 | -1% | 0.24 | –
CCO[C@H]1CCCN(C(=O)c2cn(-c3ccccc3)nc2-c2ccc(C)o2)C1 | -8% | 1.03 | –
Cc1nc(NCc2nnc3n2CCC3)c2cccnc2n1 | -10% | 1.41 | –

SMILES | % Inhibition | Z score | % Inhibition (2 µM)
CCOC(=O)c1nc(Nc2cccc(C)c2)c2c(C)c(C)n(-c3ccccc3)c2n1 | -1% | 0.16 | –
CC(=O)c1ccc(OCCN2C(=O)C3(OCCO3)c3ccc(Cl)c(Cl)c32)cc1 | 2% | -0.35 | –
O=C(Nc1cccc(C(F)(F)F)c1)[C@@H]1C2C=CC(C2)[C@@H]1C(=O)O (some centres undefined) | -9% | 1.41 | –
CCN1CCN(S(=O)(=O)N2CCCC[C@@H]2C)CC1 | 6% | -0.76 | –
CCCn1c(C)nnc1COC(=O)c1cccc2cn[nH]c12 | 29% | -2.96 | –
Cn1cc(C(=O)N[C@@H]2CCCc3c(F)cc(F)cc32)cn1 | -12% | 2.27 | –
CC(C)(C)CN1CCC[C@H](N2CCC(O)(O)C(F)(F)C2)C1=O | -7% | 1.43 | –
CC(=O)N1CCCN(C(=O)c2cnc3ccccc3n2)CC1 | -4% | 0.51 | –
CC(C)(CN[C@H](C1CCCCC1)C1CC1)C(N)=O | -10% | 1.45 | –
Cc1cccc(CN(C(=O)CCn2ccc(=O)[nH]c2=O)C2CCCCC2)c1 | -7% | 1.31 | –
CN(C)S(=O)(=O)N(CCNC(=O)Nc1ccccc1)C1CCOCC1 | -9% | 1.43 | –
Cn1nnc(-c2cccc(NC(=O)c3[nH]nc4c3CCC4)c2)n1 | -16% | 1.7 | –
COC1([C@H](C)NC(=O)c2cnn3c2CCC3)CCC1 | -9% | 1.22 | –
O=C(NC1CC1)[C@@H]1CN(Cc2cccn2-c2nccs2)CCN1 | -2% | 0.48 | –
CCCc1cncnc1-c1cccc(C(=O)N2CCN3CCNC(=O)[C@@H]3C2)c1 | -11% | 1.94 | –
Nc1ccc(-c2ccc(S(=O)(=O)c3cccc(N)c3)cc2N)cc1 | -4% | 0.82 | –
CC(CCS(C)(=O)=O)NC(=O)NC1CCCC12CCOCC2 (centres undefined) | 7% | -0.88 | –
Cc1ccc(-c2nnc3c4ccccc4nc(N4CCCN(C(=O)c5cccc(C)c5)CC4)n23)cc1 | 9% | -1.78 | –
CC(C)CC1NC(=O)C(O)(C(F)(F)F)NC1=O (centres undefined) | 1% | -0.08 | –
